Laboratory results reported in PubChem BioAssay AID463173 (ICCB-Longwood Screening Facility, Harvard Medical School, 2010).
The campaign covered roughly 52,000 compounds. About 1,700 (3.3%) were called active. Cut-off read from the data, not from the text of the source: active = survival mostly below about 52% (no sharp cut-off); inactive = mostly above about 56%. This is one part of the list.

Tested on: Wild type
Assay: S. aureus survival, RN4220 and DeltatarO strains – OD600, teichoic acid synthesis inhibitors, primary screen (AID 463173)
Settings: S. aureus RN4220 wild type/DeltatarO growth, OD600, 18 h, active compounds read low, screened at 18.75 µg/mL (by protocol)

Row | Compound | survival
1 | Cc1c(C(=O)Nc2c(F)cccc2F)sc2ncn(Cc3ccccc3F)c(=O)c12 | inactive: 71%
2 | COc1ccc(C(=O)NCc2cn3ccc(C)cc3n2)cc1 | inactive: 86%
3 | CN(Cc1ccccc1)c1nc2c(S(=O)(=O)c3cccc(Cl)c3)nnn2c2ccsc12 | inactive: 88%
4 | CCCCNC(=O)CSc1nc2cc3c(cc2c(=O)n1CCCC(=O)NCc1ccc(OC)cc1)OCO3 | inactive: 55%
5 | CC(C)CC(=O)NC1CC(=O)N(c2ccc3c(c2)OCCO3)C1 (configuration not stated) | inactive: 113%
6 | Cc1ccc2c(c1)N(C(=O)N1CCC(C(=O)Nc3cccc(F)c3)CC1)CCO2 | inactive: 70%
7 | O=S(=O)(NCCc1csc2nc(-c3ccc(Cl)cc3)nn12)c1cccs1 | inactive: 72%
8 | COC(=O)c1ccccc1NC(=O)NCc1ccc2c(c1)CCN2C(=O)c1ccccc1 | inactive: 73%
9 | O=C1CN(C(=O)c2ccc(S(=O)(=O)N3CCCC3)cc2)C(c2ccc(F)cc2)c2cc(Br)ccc2N1 (configuration not stated) | inactive: 152%
10 | COc1cccc(C(=O)NC2CCCC2)c1 | inactive: 103%
11 | CCC1CN(S(=O)(=O)c2cc(-c3cc(C)no3)ccc2OC)c2cc(Cl)ccc2O1 (configuration not stated) | inactive: 83%
12 | COc1ccccc1Nc1cc(C(=O)NCCCN(C)C2CCCCC2)c2ccccc2n1 | inactive: 108%
13 | COc1cc(Nc2nc3c(S(=O)(=O)c4ccccc4)nnn3c3ccc(Cl)cc23)cc(OC)c1 | inactive: 83%
14 | O=c1c2oc3ccccc3c2n(Cc2ccccc2Cl)c(=O)n1Cc1ccc2c(c1)OCO2 | inactive: 94%
15 | CCc1ccccc1NC(=O)CN(c1cc(C(F)(F)F)ccc1Cl)S(=O)(=O)c1ccccc1 | inactive: 68%
16 | CCOC(=O)c1ccc2c(c1)N(Cc1cc(C)ccc1C)C(=O)c1ccccc1S2(=O)=O | inactive: 80%
17 | Cc1cc(C)cc(NC(=O)[C@H]2O[C@@H]3OC(C)(C)O[C@@H]3[C@H]3OC(C)(C)O[C@H]32)c1 | inactive: 102%
18 | Cc1ccc2c(c1)N(C(=O)CCC(=O)NCc1ccccc1F)CC(C)O2 (configuration not stated) | inactive: 115%
19 | O=C(COc1ccc(Cl)cc1)OCc1cc(=O)n2nc(C3CCCCC3)sc2n1 | inactive: 92%

Row | Compound | survival
20 | Cc1cc(C)c2nc(N3CCCN(C(=O)c4ccco4)CC3)c(C#N)cc2c1 | inactive: 123%
21 | Cc1ccccc1C(=O)N1CCC(c2nc(-c3ccc(S(=O)(=O)N4CCCC4)cc3)no2)CC1 | inactive: 108%
22 | CCc1ccc(NC(=O)C2CCN(c3ncccn3)CC2)cc1 | inactive: 100%
23 | CC(C)C(=O)c1cn(CC(=O)NCc2cccs2)c2ccccc12 | inactive: 109%
24 | Clc1cccc(Nc2ncnc3c2nc2n3CCCCC2)c1 | active: -1%
25 | O=C(Nc1ccccc1Cl)N1CCc2ccccc2C1 | inactive: 87%
26 | Cc1ccsc1CN(Cc1ccco1)c1cnc(S(C)(=O)=O)nc1C(=O)Nc1ccc(Cl)cc1 | inactive: 82%
27 | Cn1c(=O)oc2cc(S(=O)(=O)CCC(=O)NCc3ccc(Cl)cc3)ccc21 | inactive: 74%
28 | CCCC(O)=NS(=O)(=O)c1ccc(N=NN(C)C)cc1 | inactive: 121%
29 | CC1CCN(C(=O)CN2CC(C)Sc3ccccc32)CC1 (configuration not stated) | inactive: 71%
30 | CCOCCn1ccc2c(OCC(=O)Nc3cc(C)cc(C)c3)cccc2c1=O | inactive: 88%
31 | COc1ccc(-c2cn3nc(SCC(=O)Nc4cccc(C)c4C)ccc3n2)cc1 | inactive: 99%
32 | COc1ccc(Nc2nc3ccccc3n3c(N)nnc23)cc1 | inactive: 76%
33 | Cc1cccc(C(=O)Nc2ccc(OCc3cc(=O)n4ccc(C)cc4n3)cc2)c1 | inactive: 55%
34 | Cc1ccc(NS(=O)(=O)c2ccc(-n3cccn3)cc2)c(Br)c1 | inactive: 75%
35 | COc1cc2c(cc1OC)C(COc1cc(C)cc(C)c1)N(C(=O)C(C)(C)C)CC2 (configuration not stated) | inactive: 70%
36 | CCC(Nc1ccc(-c2nc(-c3ccccn3)no2)cc1[N+](=O)[O-])c1ccccc1 (configuration not stated) | inactive: 70%
37 | CC1(C)C(=O)NC(=O)N1CN1C(=O)NC(=O)C1(C)C | inactive: 111%
38 | O=C(NCc1ccco1)c1ccc(S(=O)(=O)NCC2CCCCC2)cc1 | inactive: 105%

Row | Compound | survival
39 | CCCCN(C)C(=O)CCC(=O)NNc1nc2ccccc2c2nc(C)nn12 | inactive: 78%
40 | Cc1ccc(C(c2sc3nc(-c4ccco4)nn3c2O)N2CCN(c3ccc(F)cc3)CC2)cc1 (configuration not stated) | inactive: 110%
41 | Cc1oc(-c2cccc(Cl)c2)nc1Cn1c(SCc2ccc(F)cc2)nc2cccnc21 | inactive: 77%
42 | Cc1cccc(N2CCn3c2nc2c3c(=O)n(CCCc3ccccc3)c(=O)n2C)c1 | inactive: 90%
43 | COc1cc2c(C(=O)N(C)c3cccc(C(F)(F)F)c3)cn(CC(C)C)c(=O)c2cc1OC | inactive: 141%
44 | COc1cc(CN(C(=O)COc2ccccc2)c2ccccn2)cc(OC)c1OC | inactive: 84%
45 | Cc1ccc(C2CC(=O)Nc3c2c(C)nn3-c2nc(C)cc(C)n2)c(C)c1 (configuration not stated) | inactive: 118%
46 | O=C(CCCCCn1c(=O)c2sccc2n(CC(=O)Nc2ccccc2F)c1=O)NCc1ccc2c(c1)OCO2 | inactive: 100%
47 | CCC(C)OC(=O)/C(C#N)=C/c1ccc(-c2ccc(Br)cc2)o1 (configuration not stated) | inactive: 54%
48 | Cc1cc2n(n1)CCCN2C(=O)Nc1ccccc1C(F)(F)F | inactive: 88%
49 | CCc1ccc(S(=O)(=O)c2nnn3c2nc(N(CC)Cc2ccccc2)c2cc(Cl)ccc23)cc1 | inactive: 92%
50 | COC(=O)c1cc(-c2ccccc2)sc1N | inactive: 116%
51 | COC(=O)CN1C(=O)CSc2ccc(S(=O)(=O)Nc3ccc(C)c(Cl)c3)cc21 | inactive: 79%
52 | O=C(Cc1ccc(-c2ccccc2)cc1)NCCS(=O)(=O)N1CCN(c2ccccc2F)CC1 | inactive: 80%
53 | CCc1nnc(NC(=O)C2CCCO2)s1 (configuration not stated) | inactive: 90%
54 | COc1cccc(NC(=O)C2CCCN(c3ncnc4onc(C)c34)C2)c1 (configuration not stated) | inactive: 72%
55 | O=C(Nc1ccccc1C(=O)N1CCCCC1)c1nsc2ccccc12 | inactive: 159%
56 | COc1ccc(NC(=O)CNC(=O)Cn2ccc3ccccc3c2=O)cc1OC | inactive: 91%
57 | CCc1ccc(NC(=O)c2cc(=O)c3ccc(C)c(C)c3o2)cc1 | inactive: 99%
